Results on 44 compounds are retold here after article PMC4336329 (PLoS ONE, 2015).

Among all 310,000 compounds or so, about 2,200 (0.71%) showed an effect of 50% or more. The effect is printed as a negative number. This is one part of the list.

human ether-à-go-go-related gene (hERG) potassium channel, sequence (Q12809 whole entry, looked up): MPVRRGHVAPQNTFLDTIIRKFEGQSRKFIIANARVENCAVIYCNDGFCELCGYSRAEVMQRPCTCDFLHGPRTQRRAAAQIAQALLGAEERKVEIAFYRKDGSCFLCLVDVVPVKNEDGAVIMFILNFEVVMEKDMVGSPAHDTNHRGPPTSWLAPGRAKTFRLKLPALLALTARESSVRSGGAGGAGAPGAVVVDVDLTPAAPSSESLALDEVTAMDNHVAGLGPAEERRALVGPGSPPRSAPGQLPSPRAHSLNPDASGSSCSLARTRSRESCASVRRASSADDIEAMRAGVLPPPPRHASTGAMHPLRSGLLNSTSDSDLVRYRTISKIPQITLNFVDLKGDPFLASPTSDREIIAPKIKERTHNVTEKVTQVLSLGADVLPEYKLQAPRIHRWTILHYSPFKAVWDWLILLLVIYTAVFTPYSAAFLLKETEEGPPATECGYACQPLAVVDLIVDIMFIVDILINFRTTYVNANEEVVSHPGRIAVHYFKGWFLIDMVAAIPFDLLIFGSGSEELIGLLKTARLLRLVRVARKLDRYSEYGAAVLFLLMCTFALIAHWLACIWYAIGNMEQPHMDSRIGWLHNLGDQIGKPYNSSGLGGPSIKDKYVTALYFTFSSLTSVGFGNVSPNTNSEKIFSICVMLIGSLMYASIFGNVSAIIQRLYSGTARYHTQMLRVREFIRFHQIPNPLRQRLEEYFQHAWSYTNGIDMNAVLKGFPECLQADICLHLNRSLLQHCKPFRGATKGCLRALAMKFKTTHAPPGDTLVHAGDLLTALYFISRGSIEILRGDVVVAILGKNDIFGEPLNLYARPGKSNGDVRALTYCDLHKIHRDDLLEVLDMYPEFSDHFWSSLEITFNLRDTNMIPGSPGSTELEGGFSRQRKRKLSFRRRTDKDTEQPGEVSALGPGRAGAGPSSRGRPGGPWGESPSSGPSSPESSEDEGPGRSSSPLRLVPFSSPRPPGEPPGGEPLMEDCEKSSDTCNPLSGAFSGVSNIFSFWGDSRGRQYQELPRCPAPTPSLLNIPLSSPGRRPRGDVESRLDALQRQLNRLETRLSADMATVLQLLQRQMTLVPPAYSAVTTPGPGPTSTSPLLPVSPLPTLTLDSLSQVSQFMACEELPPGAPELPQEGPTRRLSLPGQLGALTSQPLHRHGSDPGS

This experiment has as its target human ether-à-go-go-related gene (hERG) potassium channel (human, UniProt Q12809). Briefly: primary screen, population patch clamp on CHO cells stably expressing hERG.
As to `COC(=O)c1ccccc1NC(=O)C1(S(=O)(=O)c2ccc(Cl)cc2)CC1`, the “hERG current change (%, negative = inhibition) at 1uM” value is given as 7.49%.
For the compound `COc1ccc(S(=O)(=O)N(C(=O)c2ccco2)c2cc3sc(=O)oc3c3ccccc23)cc1`, the “hERG current change (%, negative = inhibition) at 1uM” value worked out at 2.24%.
Next, `O=c1cc(CSc2nnnn2-c2ccccc2)nc(Nc2ccc(F)cc2)[nH]1`: -4.12%; `NC(=O)Cn1cc(/C=N/NC(=O)c2ccc(Cn3cc(Cl)cn3)o2)c(-c2ccccc2)n1`: 8.64%; `Cc1ccc(OCCC(=O)OCC(=O)c2c(N)n(CC(C)C)c(=O)n(C)c2=O)cc1`: -42.3%.
With `CCOC(=O)c1c(NC(=O)COC(=O)CCS(=O)(=O)c2ccc(C)cc2)sc(C)c1C`, the “hERG current change (%, negative = inhibition) at 1uM” value turned out to be 9.46%.
Consider `COCCNC(=O)C(=O)N/N=C/c1cccs1`, for which the “hERG current change (%, negative = inhibition) at 1uM” value is given as 13.8%.
Next, `Oc1ccc(Cc2ncc(C(F)(F)F)cc2Cl)cc1`: 8.51%; `Cc1c(NC(=O)CN2CC(C)OC(C)C2)c(=O)n(-c2ccccc2)n1C.O=C(O)C(=O)O` (centres unmarked): 7.03%; `Cc1cc(Br)ccc1NC(=O)CN(C)C(=O)CSC(=S)N1CCCC1`: 1.23%.
As for `COc1cc(NC(=S)NC(=O)c2ccccc2F)ccc1NC(=O)c1ccco1`, the “hERG current change (%, negative = inhibition) at 1uM” value amounted to 7.37%.
Next, `Cc1ccc(C)c(-c2csc(NC(=O)c3c(C)noc3C)n2)c1`: -2.01%; `CCC(=O)N1CCCc2cc(S(=O)(=O)N3CCCc4ccccc43)ccc21`: 2.75%; `COc1cc(CC(=O)Nc2nc(-c3ccc(F)c(F)c3)cs2)cc(OC)c1OC`: 11.9%.
Next, `COc1ccc(NC(=O)CC2SC3=NCCN3C2=O)cc1` (centres unmarked): 13.9%.
The result for `COc1cc(OC)nc(Oc2cc(/C=N/O)ccc2OC)n1` reads 12.3%.
Take `CC(C)(C)NCC(O)(c1ccc(Cl)cc1)c1ccc(Cl)cc1`: the “hERG current change (%, negative = inhibition) at 1uM” value stood at 13%.
The result for `O=C(CN1C(=O)NC2(CCCCCC2)C1=O)Nc1ccc(S(=O)(=O)N2CCOCC2)cc1` reads 9.34%; that for `CC(=O)N(CC1CCCO1)c1nnc(-c2cnccn2)s1` (centres unmarked), 14.6%; that for `Cc1ccc(NC(=O)C(=O)NNC(=O)c2ccccc2C)cc1Cl`, 4.99%.
With `COC(=O)C1(C)NC(c2ccc(O)cc2)C2C(=O)N(c3ccc(F)cc3)C(=O)C21` (centres unmarked), the “hERG current change (%, negative = inhibition) at 1uM” value is 11%.
The result for `N/C(=N\O)c1ccc(NC(=O)c2ccc(Br)o2)cc1` reads 5.54%.
Consider `CN(/N=C/c1cc(Br)cc(Br)c1O)c1cccc(C(F)(F)F)n1`, for which the “hERG current change (%, negative = inhibition) at 1uM” value is reported as 16.7%.
Next, `CCCCN(CCCC)S(=O)(=O)c1ccc(OC)c2ncccc12`: 12.1%.
Next, `Cc1ccc(S(=O)(=O)NNC2=NS(=O)(=O)c3ccccc32)c(C)c1`: 11.8%; `CC(=O)c1ccc(OCC(O)CN2CCOCC2)cc1.Cl` (centres unmarked): 12.3%; `Cc1ccc(C)[n+](CC(=O)c2ccc(-c3ccccc3)cc2)c1.[Cl-]`: 6.11%.
The result for `Cc1nc(N2CCN(Cc3ccccc3)CC2)nc2c1C(=O)CC(C)C2` (centres unmarked) reads 17.4%; that for `O=S(=O)(Nc1cccc(-n2cnnn2)c1)c1ccc(Cl)nc1`, 12.8%.
For `CCOC(=O)Cc1nnc(Nc2ccc(C)cc2C)c2ccccc12`, the “hERG current change (%, negative = inhibition) at 1uM” value stood at 5.17%.
In the case of `CN(C)/C=C1/NC(=S)NC1=O`, the “hERG current change (%, negative = inhibition) at 1uM” value was -0.297%.
Next, `COc1ccc(C(=O)NC(=S)NNC(=O)c2ccco2)cc1`: 15.3%.
Next, `Cc1c(C)c2ccc(OCC(=O)Nc3ccccn3)cc2oc1=O`: 16.2%; `O=C(O)CCOc1ccc2c(c1)OCCO2`: 1.91%; `O=S(=O)(Nc1ncnc2c1oc1ccccc12)c1ccc(Cl)s1`: 11.7%.
`Cc1cccc(C)c1OCC(O)Cn1ccnc1C` (centres unmarked): the “hERG current change (%, negative = inhibition) at 1uM” value came out at 9.73%.
Take `O=C(CC1Nc2ccccc2NC1=O)NCCc1ccccc1` (centres unmarked): the “hERG current change (%, negative = inhibition) at 1uM” value is 2.61%.
Next, `COc1ccc(-c2nc(CSCC(=O)NC3CCCc4ccccc43)c(C)o2)cc1` (centres unmarked): 7.69%; `NC(=NCCc1ccccc1)NS(=O)(=O)c1ccc(F)cc1`: 8.18%.
Next, `Cc1cc(C)c(C)c(S(=O)(=O)N2CCC(C(=O)N3CCCC3)CC2)c1C`: -3.51%; `Cc1ccc(OCC(=O)Nc2cc(C)on2)c([N+](=O)[O-])n1`: 9.7%.
The result for `CN=C(SCc1ccccc1)c1c(O)n(C)c(=O)n(C)c1=O` reads 7.13%; that for `COC(C(=O)N1CCC(n2nccc2NC(=O)C2CC2)CC1)c1ccccc1` (centres unmarked), 11.1%.
For the compound `COc1ccc(C)cc1NC(=O)C(Sc1nnc(Nc2cc(C)ccc2OC)s1)c1ccccc1` (centres unmarked), the “hERG current change (%, negative = inhibition) at 1uM” value is -0.146%.
